Assay results: PubChem BioAssay AID485364 (National Center for Advancing Translational Sciences (NCATS), 2010)
Out of some 360,000 compounds screened, about 11,000 (3.1%) were called active. Inconclusive means that the source gave no clear call. Such entries were picked first, then a sample of the others. The call rests on the fitted dose curve; in most records, active means well fitted inhibition curve with a large enough effect; inconclusive means small, poorly fitted or top-dose-only effect; inactive means no such curve, though single readings can be large or run the other way. No potency is given beside an inconclusive call; the fits are too rough.

Molecular target: Schistosoma mansoni thioredoxin glutathione reductase (TGR) (UniProt Q962Y6)
Assay: qHTS Assay for the Inhibitors of Schistosoma Mansoni Peroxiredoxins; further: nearly all actives have a fitted effect of over 60% in size
Details: purified TGR, DTNB reduction, TNB absorbance 405 nm; series mostly up to 114 µM
Method in brief: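 Kinetic colorimetric format: TGR-catalysed, NADPH-driven DTNB reduction monitored via TNB absorbance. Enzyme dispensed at 20 nM; compound exposure 15 min at room temperature before reaction start.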
Potency means the concentration at half of the fitted maximal effect; tags describe the fitted curve by direction and shape.

SMILES | Potency
Cc1ccc(/C=C2/C(=O)ON=C2c2ccccc2)o1 | active: 5.01 µM
O=C(CCS(=O)(=O)c1ccccc1)Nc1nc2ccc(F)cc2s1 | inconclusive [inhibitor, partial curve]
Cn1c(=O)c2c(ncn2CC(=O)Nc2cccc(C(F)(F)F)c2)n(C)c1=O | inactive
COc1ccc(CN(C(=O)c2snc(C(N)=O)c2N)C(C(=O)NC(C)(C)C)c2ccco2)cc1 (centres undefined) | inconclusive [inhibitor, partial curve]
CC(=O)C1C(c2ccc3ncccc3c2)NC(=O)NC1(O)C(F)(F)F (centres undefined) | inconclusive [inhibitor, full curve, poor fit]
Cc1cc(OCCCCNC(C)C)cc(C(C)C)c1 | inactive
COc1cc(/C=N/NC(=O)c2cc(C3CC3)[nH]n2)ccc1O | inactive
Cc1ccc(SCC(=O)OCC(=O)N(CC(C)C)c2c(N)n(Cc3ccccc3)c(=O)[nH]c2=O)cc1C | inactive
Cc1cc(C)n(CC(O)COCc2ccco2)n1 (centres undefined) | inconclusive [inhibitor, partial curve]
CC(=O)Nc1nc(CCl)cs1 | inconclusive [inhibitor, partial curve]
CCN(CC)S(=O)(=O)c1ccc(N2CCOCC2)c(NC(=O)CC23CC4CC(CC(Br)(C4)C2)C3)c1 | inactive
NC(=O)CNC1CC(=O)N(CCc2ccccc2)C1=O (centres undefined) | inconclusive [inhibitor, partial curve]
CCOC(=O)CNS(=O)(=O)c1cc(-c2nnc(Nc3cccc(O)c3)c3ccccc23)ccc1C | inactive
COC(=O)N1C(=O)[C@@](Cc2ccccc2)(c2ccccc2)N1C(=O)OC | active: 3.55 µM
Cc1ccc(-c2noc(CCC(=O)N3CCN(c4cccc(C(F)(F)F)c4)CC3)n2)cc1 | inactive
CC1CC2=C(NC(=S)NC2c2ccccc2F)/C(=C/c2ccccc2F)C1 (centres undefined) | inconclusive [inhibitor, partial curve]
O=C(N/N=C/c1c[nH]c2ccccc12)c1ccc([N+](=O)[O-])cc1Cl | inactive
O=C(Cn1nc2c(cc1=O)CCCC2)Nc1ccccc1C(F)(F)F | inactive
NC(=O)C1CCN(C2=C(NS(=O)(=O)c3ccc(Br)cc3)C(=O)c3ccccc3C2=O)CC1 | inconclusive [inhibitor, full curve, poor fit]
CCOC(=O)N1CCN(CC(O)COC(CC)c2ccccc2)CC1 (centres undefined) | inconclusive [inhibitor, partial curve]
CCOc1ccccc1CNS(=O)(=O)c1ccc(-c2coc(C)n2)cc1 | inactive
COc1ccc(/C(N)=N/OC(=O)c2ccc3c(c2)OCO3)cc1 | inconclusive [inhibitor, full curve, poor fit]
CCc1ccc(C(=O)NNc2ccc(F)cc2)cc1 | inconclusive [inhibitor, partial curve]
CC1CCCCN1C(=O)Cn1c(SCC(=O)N(C)c2ccccc2)nc2ccccc21 (centres undefined) | inactive
Cc1[nH]c2ccc(O)cc2c1CCN | active: 39.8 µM

SMILES | Potency
O=C(NC(=S)Nc1ccccc1[N+](=O)[O-])c1ccccc1 | inconclusive [inhibitor, full curve]
O=S(=O)(c1cccc2nonc12)N1CCN(c2ccc(F)cc2)CC1 | inconclusive [inhibitor, partial curve]
O=C(CN1C(=O)c2ccccc2C1=O)Nc1cc(C(=O)O)cc(C(=O)O)c1 | inconclusive [inhibitor, partial curve]
N#Cc1c(-c2ccc(F)cc2)noc1N | inactive
CC(C)CN1CCc2nc(N3CCN(C)CC3)ncc2C1 | inactive
Cc1ccc(C(=O)C[n+]2ccc3ccccc3c2)cc1 | inactive
O=[N+]([O-])c1cc(-c2ccc(C(=S)N3CCOCC3)o2)ccc1Cl | inconclusive [inhibitor, single point]
COc1cc(/C=C(\C#N)C(=O)N2CCOCC2)cc(Br)c1O | inconclusive [inhibitor, single point]
O=C(NC(=S)Nc1ccc(Cl)c(C(=O)O)c1)c1cncc(Br)c1 | active: 12.6 µM
c1ccc(CSc2nnc(-c3c[nH]c4ccccc34)o2)cc1 | inactive
Cn1c(-c2ccc(CN3CCCCC3)o2)nc2ccccc21 | inconclusive [inhibitor, full curve]
CNc1ccc(Br)cc(C(=O)/C=C/c2ccc3c(c2)OCO3)c1=O | active: 2.82 µM
O=c1c2ccccc2nc2ccc(NCc3ccco3)nn12 | inconclusive [inhibitor, partial curve]
COc1ccc(C2Nc3ccccc3C(=O)N2c2ccccc2)cc1Cn1cc([N+](=O)[O-])cn1 (centres undefined) | inactive
COc1ccccc1N1CCN(C(=O)c2cc3c(=O)n(Cc4ccco4)ccc3nc2C)CC1 | active: 14.1 µM
COc1cc(/C=N/NC2=NS(=O)(=O)c3ccccc32)ccc1OC(C)=O | inactive
CCC(C)n1c(O)c(C(c2ccccn2)c2c(O)n(C(C)CC)c(=S)[nH]c2=O)c(=O)[nH]c1=S (centres undefined) | inconclusive [inhibitor, full curve]
O=C(N/N=C/c1ccc[nH]1)c1cc2ccccc2cc1O | inconclusive [inhibitor, partial curve]
Cc1ccc(N2C(=O)[C@@H]3[C@H](C2=O)C2c4ccccc4C=CN2[C@@H]3C(=O)c2ccco2)cc1 (some centres undefined) | active: 28.2 µM
CC(C)NC(=O)/C(=C/c1ccco1)c1ccccc1 | inconclusive [inhibitor, partial curve]
O=C(C1=C[C@H](C2CCCCC2)C[C@H](OCCCCO)O1)N1CCN(Cc2ccccc2)CC1 | active: 35.5 µM
COc1ccc(Oc2c(Cl)cnn(-c3ccc(Cl)c(Cl)c3)c2=O)cc1 | inactive
Cc1nn(C)c(C(=O)Nc2ccc(Br)cc2F)c1Br | inactive
O=C(OCc1nc(-c2ccccc2)oc1COC(=O)c1ccco1)c1ccco1 | inconclusive [inhibitor, full curve]
